Laboratory results published in article PMC4336329 (PLoS ONE, 2015).
Screen size: about 310,000 compounds; about 2,200 (0.71%) showed an effect of 50% or more. The effect is printed as a negative number. Some of the results follow.

Each compound was assayed against human ether-à-go-go-related gene (hERG) potassium channel (human, UniProt Q12809) (assay: primary screen, population patch clamp on CHO cells stably expressing hERG).
Sequence of human ether-à-go-go-related gene (hERG) potassium channel (Q12809 whole entry, looked up): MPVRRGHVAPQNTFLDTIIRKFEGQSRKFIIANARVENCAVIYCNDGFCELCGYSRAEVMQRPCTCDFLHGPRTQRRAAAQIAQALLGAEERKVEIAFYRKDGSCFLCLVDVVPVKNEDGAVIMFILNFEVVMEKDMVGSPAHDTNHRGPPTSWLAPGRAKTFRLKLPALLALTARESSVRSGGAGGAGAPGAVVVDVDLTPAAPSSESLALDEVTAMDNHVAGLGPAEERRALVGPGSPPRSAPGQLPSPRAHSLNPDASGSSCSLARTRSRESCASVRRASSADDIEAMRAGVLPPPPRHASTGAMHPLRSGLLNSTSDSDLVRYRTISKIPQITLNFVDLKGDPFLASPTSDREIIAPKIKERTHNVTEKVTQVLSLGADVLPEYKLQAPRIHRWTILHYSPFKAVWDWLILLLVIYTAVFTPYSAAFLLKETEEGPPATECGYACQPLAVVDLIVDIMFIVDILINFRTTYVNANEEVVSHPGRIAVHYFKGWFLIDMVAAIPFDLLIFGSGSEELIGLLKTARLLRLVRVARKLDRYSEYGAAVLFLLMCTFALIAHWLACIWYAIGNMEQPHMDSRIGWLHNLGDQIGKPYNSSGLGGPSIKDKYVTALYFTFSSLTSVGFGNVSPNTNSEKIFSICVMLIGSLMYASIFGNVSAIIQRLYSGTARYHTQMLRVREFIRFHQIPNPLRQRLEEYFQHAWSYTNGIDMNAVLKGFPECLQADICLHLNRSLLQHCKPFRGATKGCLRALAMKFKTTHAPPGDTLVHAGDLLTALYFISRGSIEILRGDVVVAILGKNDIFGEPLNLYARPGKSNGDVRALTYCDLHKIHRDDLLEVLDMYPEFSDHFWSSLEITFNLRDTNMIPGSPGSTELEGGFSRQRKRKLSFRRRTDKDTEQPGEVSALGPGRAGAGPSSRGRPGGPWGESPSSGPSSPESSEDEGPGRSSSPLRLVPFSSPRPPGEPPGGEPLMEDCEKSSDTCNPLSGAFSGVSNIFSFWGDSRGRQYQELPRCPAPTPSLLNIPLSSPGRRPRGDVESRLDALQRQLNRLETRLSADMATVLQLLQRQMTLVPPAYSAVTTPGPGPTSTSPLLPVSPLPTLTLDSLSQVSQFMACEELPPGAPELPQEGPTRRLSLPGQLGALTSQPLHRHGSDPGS

Going from O=C(CN1C(=O)CSc2ccc(S(=O)(=O)N3CCOCC3)cc21)NCCCN1CCc2ccccc2C1 to CCCN1CCN(CCCNC(=O)CN2C(=O)c3cccnc3Oc3ccc(Cl)cc32)CC1, the “hERG current change (%, negative = inhibition) at 1uM” value rises from 2.43% to 2.45%.

Compared with O=C(Cc1ccc(-c2ccccc2)cc1)NC1CCCC1, c1ccc(-c2nc(C3CCCCC3)c3ccccc3n2)cc1 is higher in “hERG current change (%, negative = inhibition) at 1uM” value: 9.27% for the first, 18.7% for the second.

First: Cc1cccc(NC(=O)CN(c2ccc(F)cc2)S(C)(=O)=O)c1
Second: COC(=O)c1ccc(NC(=O)CN(c2ccc(C)cc2)S(=O)(=O)c2c(C)n[nH]c2C)cc1
The “hERG current change (%, negative = inhibition) at 1uM” value of the first is lower: 4.91% for the first, 9.45% for the second.

Going from O=C(NC1C/C(=N/O)c2cc3c(cc21)OCO3)C(F)(F)F (stereo not shown) to CC(=O)N1CC=CC1(C)C(=O)NCc1cc(F)cc(C(F)(F)F)c1 (stereo not shown), the “hERG current change (%, negative = inhibition) at 1uM” value falls from 15.4% to 12.2%.

Going from CSc1ccc(CN2CCC(CO)(CCOc3ccccc3)CC2)cc1 to C/C(CCc1ccccc1)=N\NC(=O)c1ccc(CN2CCOCC2)cc1, the “hERG current change (%, negative = inhibition) at 1uM” value rises from -81.2% to 14.8%.

Going from CCN(c1ccc(NC(=O)COC(=O)/C=C/c2cccs2)cc1)C(C)C to CC(C)[C@H](NC(=O)c1ccco1)C(=O)OCC(=O)Nc1ccc(F)cc1, the “hERG current change (%, negative = inhibition) at 1uM” value falls from 14.7% to 9.01%.

First: CC(C)c1nc2oc3c(NCC4CCCO4)ncnc3c2c2c1CCC2 (stereo not shown)
Second: c1ccc(OCc2nn3c(-c4n[nH]c5c4CCC5)nnc3s2)cc1
The “hERG current change (%, negative = inhibition) at 1uM” value of the first is lower: -7.31% for the first, 5.36% for the second.

First: COc1ccc(/C=C/C(=O)NCCCn2ccnc2)cc1
Second: CCN1C(=O)CC(C(=O)NCCc2ccc(S(N)(=O)=O)cc2)SC1=Nc1ccc(OC)cc1 (stereo not shown)
The “hERG current change (%, negative = inhibition) at 1uM” value of the first is lower: 2.77% for the first, 13.2% for the second.

Going from O=C(NC1CCCCCCC1)C1CCN(c2nc3ccccc3o2)CC1 to COc1cc(SC)ccc1C(=O)NC1CCCCC1, the “hERG current change (%, negative = inhibition) at 1uM” value rises from -10.5% to 2.69%.

Going from Cc1ccc(OCc2nc(C#N)c(NCc3ccco3)o2)cc1 to Cc1ccc(S(=O)(=O)c2nc(-c3ccco3)oc2N2CCC(C)CC2)cc1, the “hERG current change (%, negative = inhibition) at 1uM” value rises from 5.31% to 6.26%.

Going from Cc1ccc(-c2nnc(N3CCCCCC3)c3ccccc23)cc1 to Cc1ccc(NC(=O)C2C(=O)N(C)c3ccccc32)cc1 (stereo not shown), the “hERG current change (%, negative = inhibition) at 1uM” value falls from 8.57% to -1.93%.

Going from COc1ccc(N2CCN(C(=O)CN(c3cccc(Br)c3)S(C)(=O)=O)CC2)cc1 to COc1ccc(N(CC(=O)N2CCN(c3cc(C)ccc3C)CC2)S(=O)(=O)c2c(C)noc2C)cc1, the “hERG current change (%, negative = inhibition) at 1uM” value rises from 2.55% to 14.7%.

First: COc1ccccc1CC(=O)Nc1ccc(S(=O)(=O)N(C)C2CCN(C)CC2)cc1
Second: CCn1c(SCC(=O)Nc2cccc(S(=O)(=O)N(C)c3ccccc3)c2)nnc1C1CC1
The “hERG current change (%, negative = inhibition) at 1uM” value of the first is higher: 5.27% for the first, -0.458% for the second.

First: O=C(CNC(=O)Cc1ccccc1)NCC(=O)N1CCN(C(c2ccccc2)c2ccccc2)CC1
Second: COc1ccccc1NC(=O)CC1C(=O)Nc2ccccc2N1C(=O)c1ccccc1 (stereo not shown)
The “hERG current change (%, negative = inhibition) at 1uM” value of the first is lower: 9.45% for the first, 13.6% for the second.

Compared with O=C1CCCC2=C1C(c1ccc(O)c(Br)c1)C1=C(CCCC1=O)N2c1ccccc1, Nn1c(Cc2ccccc2F)nnc1SCC(=O)Nc1cccc(S(=O)(=O)NC2=NCCCCC2)c1 is lower in “hERG current change (%, negative = inhibition) at 1uM” value: 7.71% for the first, 1.4% for the second.

Compared with Br.CCOc1ccc2c(c1)nc(SCC(=O)c1ccc(Br)s1)n2C, COCCn1c(C)cc(C(=O)CSc2cc(C)c3ccc(OC)cc3n2)c1C is higher in “hERG current change (%, negative = inhibition) at 1uM” value: 14.8% for the first, 15.5% for the second.

First: O=C(COC(=O)CSc1ccc(F)cc1)NCC1CCCCC1
Second: NC(=O)NC(=O)COC(=O)c1ccccc1OCc1ccc(F)cc1
The “hERG current change (%, negative = inhibition) at 1uM” value of the first is higher: 10.7% for the first, 10.1% for the second.

First: Cl.Nc1nc(-c2ccc3c(c2)OCCO3)cs1
Second: COc1ccccc1N1CCN(C(=O)c2cc(-c3ccco3)on2)CC1
The “hERG current change (%, negative = inhibition) at 1uM” value of the first is higher: 14.3% for the first, 3.37% for the second.

First: Cc1ccc(S(=O)(=O)N/N=C\c2cn(-c3ccccc3)nc2-c2ccccc2)cc1
Second: O=[N+]([O-])c1ccc(S(=O)(=O)N/N=C/c2cccs2)cc1
The “hERG current change (%, negative = inhibition) at 1uM” value of the first is higher: 14.2% for the first, 13.5% for the second.

First: COc1cc2c(cc1OC)C(C(=O)NCCC(C)C)C1CCCCN1C2=O (stereo not shown)
Second: COc1cc(CC(=O)OCC(=O)NCCc2ccc(S(N)(=O)=O)cc2)cc(OC)c1OC
The “hERG current change (%, negative = inhibition) at 1uM” value of the first is higher: 11.3% for the first, 6.76% for the second.

Going from O=C1COc2ccc(C(=O)COC(=O)c3ccc(S(=O)(=O)C(F)F)cc3)cc2N1 to CCN(CC)S(=O)(=O)c1cccc(NC(=O)c2ccc(Sc3nncn3C)c([N+](=O)[O-])c2)c1, the “hERG current change (%, negative = inhibition) at 1uM” value rises from -12.9% to 4.75%.

Going from CSc1nnc(-c2cc3c(-c4ccccc4)nn(C)c3s2)n1C to COc1ccc(OC)c(NCc2nnc(-c3ccccc3)o2)c1, the “hERG current change (%, negative = inhibition) at 1uM” value rises from 6.51% to 16.9%.

Compared with O=C(c1cc2c(ccc3ccccc32)oc1=O)N1CCN(CCO)CC1, Cc1ccc(C)c(N2CCN(C(=O)Cc3c(C(=O)O)[nH]c4ccc(Cl)cc34)CC2)c1 is lower in “hERG current change (%, negative = inhibition) at 1uM” value: 22.7% for the first, 7.62% for the second.

Compared with CCO[C@H]1OC(C(=O)Nc2ccccc2)=C[C@@H](c2cn(C(C)=O)c3ccccc23)[C@@H]1CCCO, CC(C)CC1(C(=O)NCCc2c[nH]c3ccccc23)C=CCN1C(=O)c1ccccc1 (stereo not shown) is higher in “hERG current change (%, negative = inhibition) at 1uM” value: 3.67% for the first, 18.4% for the second.

Going from Cc1cccc(C(=O)NC(NCCc2ccccc2)C(Cl)(Cl)Cl)c1 (stereo not shown) to CC(CC(=O)Nc1cccc(Cl)c1)c1ccccc1 (stereo not shown), the “hERG current change (%, negative = inhibition) at 1uM” value rises from 8.23% to 9.16%.

First: COc1cc(NC(=O)c2nccnc2N)cc(C(=O)Nc2cccc(C(F)(F)F)c2)c1
Second: O=C(O)CSCC(=O)Nc1cccc(C(F)(F)F)c1
The “hERG current change (%, negative = inhibition) at 1uM” value of the first is higher: -4.62% for the first, -7.23% for the second.

Compared with COc1ccc(Oc2coc3c(CN4CCOCC4)c(O)ccc3c2=O)cc1, Nc1cccc(Oc2ccc([N+](=O)[O-])cc2)c1 is higher in “hERG current change (%, negative = inhibition) at 1uM” value: -3.23% for the first, 7.1% for the second.

Going from C/C=C/c1ccc(OCCCCN2C(=O)NC(C)(C)C2=O)c(OC)c1 to O=C(O)CCCN1C(=O)/C(=C\C(Cl)=C\c2ccccc2)SC1=S, the “hERG current change (%, negative = inhibition) at 1uM” value rises from -2.24% to 10.1%.

First: Cc1ccc2sc(NC(=O)CN3C(=O)CCC3=O)nc2c1C
Second: COC(=O)Cn1c(=O)c2c(nc3n2CC(C)CN3c2ccc(C)c(C)c2)n(C)c1=O (stereo not shown)
The “hERG current change (%, negative = inhibition) at 1uM” value of the first is lower: 10.5% for the first, 16.5% for the second.

First: CCCn1c(=O)c2ccccc2n2c(=S)[nH]nc12
Second: COCC(C)NC(=O)COc1nncc2ccccc12 (stereo not shown)
The “hERG current change (%, negative = inhibition) at 1uM” value of the first is higher: 15.5% for the first, 11.4% for the second.

Going from Cc1ccc(S(=O)(=O)NCCC(=O)NCc2ccccn2)cc1 to COc1ccc(CN(Cc2cccn2C)S(=O)(=O)c2ccc(C)cc2)cc1, the “hERG current change (%, negative = inhibition) at 1uM” value falls from 10.2% to 9.77%.

Going from CCOC(=O)c1sc(Nc2ccccc2Cl)nc1C.O=C(O)C(=O)O to Cc1cccc(C)c1NC(=O)C(=O)NCCOc1ccc(Cl)cc1, the “hERG current change (%, negative = inhibition) at 1uM” value rises from 8.02% to 11.5%.

First: O=C(N/N=C/c1cccnc1)c1ccccc1Br
Second: O=C(COc1ccccc1[N+](=O)[O-])Nc1cccnc1
The “hERG current change (%, negative = inhibition) at 1uM” value of the first is higher: 19.8% for the first, 1.74% for the second.

Going from Cc1cccc(Oc2ncnc(N)c2[N+](=O)[O-])c1 to COC(=O)Cc1cc(=O)[nH]c(/N=C(\N)Nc2ccc(C)cc2)n1, the “hERG current change (%, negative = inhibition) at 1uM” value rises from 6.59% to 7.54%.

First: CN(N)C(=S)Nc1ccc(Cl)cc1
Second: O=C(NC1CC(=O)N(c2ccc(Cl)cc2)C1)C1CC1 (stereo not shown)
The “hERG current change (%, negative = inhibition) at 1uM” value of the first is lower: 2.36% for the first, 4.3% for the second.

First: O=C1c2ccccc2C(=O)N1OCc1cccc(Cl)c1
Second: O=C(O)COCC(=O)Nc1ccc2c(c1)ncn2CCc1ccccc1
The “hERG current change (%, negative = inhibition) at 1uM” value of the first is higher: 17.5% for the first, 16.4% for the second.

First: Cc1cccc(C)c1N1C(=O)CC(N2CCSCC2)C1=O (stereo not shown)
Second: CCN1CCN(c2ccc(N)c(C)c2)CC1
The “hERG current change (%, negative = inhibition) at 1uM” value of the first is higher: 1.04% for the first, 0.461% for the second.

Going from COc1c(C)cc(C(=O)C2CCCN(C(=O)c3cc4nc(C)cc(C)n4n3)C2)cc1C (stereo not shown) to Cc1ccc(C(=O)NCCC(=O)N2CCCC2)cc1, the “hERG current change (%, negative = inhibition) at 1uM” value rises from 0.385% to 11.6%.

First: CCn1c(C)[n+](CC)c2ccc(S(=O)(=O)NC)cc21.[I-]
Second: CCNc1nc(OC)nc(N(OC)S(=O)(=O)c2ccc(C)cc2)n1
The “hERG current change (%, negative = inhibition) at 1uM” value of the first is higher: 14.8% for the first, 12.3% for the second.

First: CC1(C)CC2CC(C)(CN2/C=N/c2sc3c(c2C#N)CC(C)(C)NC3(C)C)C1 (stereo not shown)
Second: CCOC(=O)c1cc(C#N)c(N)nc1C
The “hERG current change (%, negative = inhibition) at 1uM” value of the first is higher: 6.45% for the first, 2.15% for the second.

Compared with c1ccc(Oc2nc3ccccc3n3cccc23)cc1, Cn1nc(C(F)(F)F)c(-c2ccc(Br)cc2)c1NC(=O)c1ccco1 is lower in “hERG current change (%, negative = inhibition) at 1uM” value: 15.6% for the first, -25.2% for the second.

Going from CCOC(=O)C1(Cc2ccccc2C(F)(F)F)CCN(Cc2ccon2)CC1 to C/C(=N\NC(=O)c1cccc(S(=O)(=O)N2CCCC2)c1)c1ccco1, the “hERG current change (%, negative = inhibition) at 1uM” value rises from 4.14% to 16.6%.

Going from COc1ccc(OC)c(-c2cnc(OC(C)(C)C)nc2OC(C)(C)C)c1 to O=C1c2c(O)cc(O)cc2O[C@H](c2ccc(O)c(O)c2)[C@H]1O, the “hERG current change (%, negative = inhibition) at 1uM” value rises from 8.65% to 9.2%.

Going from CCCN1CCN(S(=O)(=O)c2ccc3c(c2)CCC(=O)N3)CC1 to O=C1CCc2cc(S(=O)(=O)NC3CCCCC3)cc3c2N1CC3, the “hERG current change (%, negative = inhibition) at 1uM” value rises from 7.13% to 11.7%.
